Measurements from PubChem BioAssay AID1645886 (National Center for Advancing Translational Sciences (NCATS), 2021).
Screen size: about 16,000 compounds; about 260 (1.6%) were called active. Inconclusive means that the source gave no clear call. Such entries were picked first, then a sample of the others. The call rests on the fitted dose curve; in most records, active means well fitted inhibition curve with a large enough effect; inconclusive means small, poorly fitted or top-dose-only effect; inactive means no such curve, though single readings can be large or run the other way. No potency is given beside an inconclusive call; the fits are too rough.

These compounds were tested against Rap guanine nucleotide exchange factor 4 (Homo sapiens) (UniProt Q8WZA2) (assay: Validation qHTS for antagonist of cAMP-regulated guanine nucleotide exchange factor 4 (EPAC2)). Settings: EPAC2 Rap1B BODIPY-GDP exchange, fluorescence; activity, negative = inhibition: at 112 µM (top of the series).
Outline: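 Fluorescent exchange read-out: 100 nM EPAC2 with 250 nM RAP1B–BODIPY-GDP and 50 uM GDP; BODIPY-GDP release lowers fluorescence. Read at 480/540 nm every 5 min for 30 min at room temperature; normalized to 6.5 mM cAMP.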
Further: nearly all actives have a fitted effect of over 40% in size.
Potency means the concentration at half of the fitted maximal effect; tags describe the fitted curve by direction and shape.
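Wherever activity, negative = inhibition is given: 100% = activation by cAMP agonist control.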

Chain of UniProt Q8WZA2 (Q8WZA2 whole entry, looked up): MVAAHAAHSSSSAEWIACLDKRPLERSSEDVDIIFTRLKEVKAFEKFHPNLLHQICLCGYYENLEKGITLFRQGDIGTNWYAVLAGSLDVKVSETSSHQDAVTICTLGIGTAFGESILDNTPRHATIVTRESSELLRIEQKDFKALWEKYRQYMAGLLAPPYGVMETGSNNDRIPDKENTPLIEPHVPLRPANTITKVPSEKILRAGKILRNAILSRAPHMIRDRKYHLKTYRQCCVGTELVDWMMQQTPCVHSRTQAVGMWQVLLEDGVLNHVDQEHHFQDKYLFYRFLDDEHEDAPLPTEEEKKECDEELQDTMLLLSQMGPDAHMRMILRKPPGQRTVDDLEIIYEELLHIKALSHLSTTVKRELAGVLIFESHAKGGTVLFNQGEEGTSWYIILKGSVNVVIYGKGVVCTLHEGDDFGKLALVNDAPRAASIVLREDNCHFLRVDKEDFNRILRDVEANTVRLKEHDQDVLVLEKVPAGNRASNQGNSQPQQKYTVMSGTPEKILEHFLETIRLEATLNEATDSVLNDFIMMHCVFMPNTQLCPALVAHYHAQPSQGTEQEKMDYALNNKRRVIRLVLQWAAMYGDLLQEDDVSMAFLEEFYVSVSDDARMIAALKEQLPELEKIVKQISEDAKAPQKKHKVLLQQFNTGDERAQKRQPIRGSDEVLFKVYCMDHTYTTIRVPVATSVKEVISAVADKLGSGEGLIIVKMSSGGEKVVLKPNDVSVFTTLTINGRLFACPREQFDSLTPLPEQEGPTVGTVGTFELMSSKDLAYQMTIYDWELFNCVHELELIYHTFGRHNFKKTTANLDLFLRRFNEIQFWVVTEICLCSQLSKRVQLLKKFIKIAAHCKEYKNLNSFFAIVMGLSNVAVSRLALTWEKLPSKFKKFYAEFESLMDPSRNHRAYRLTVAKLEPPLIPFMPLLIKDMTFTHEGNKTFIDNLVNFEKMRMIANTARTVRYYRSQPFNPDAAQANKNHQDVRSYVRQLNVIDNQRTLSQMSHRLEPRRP

Row | SMILES | Potency | activity, negative = inhibition
1 | COc1ccc(C(CN(C)C)C2(O)CCCCC2)cc1 (stereo not given) | inconclusive [inhibitor, partial curve, poor fit] | 
2 | Clc1cccc(SC2CCNCC2)n1 | inactive | 
3 | COc1ccc(C(=O)c2c(C)n(CCN3CCOCC3)c3ccccc23)cc1 | inconclusive [inhibitor, partial curve] | 
4 | C[C@]12CC[C@H]3[C@@H](C[C@H](F)C4=CC(=O)CC[C@@]43C)[C@@H]1CC[C@@H]2O | inactive | 
5 | C(=C/c1ccccc1)/CN1CCN(CCOC(c2ccccc2)c2ccccc2)CC1 | inconclusive [inhibitor, partial curve] | 
6 | COc1cc2c(cc1OC)[C@@H]1C(=O)c3ccc(OC)c(CC=C(C)C)c3OC1CO2 (stereo not given in full) | inconclusive [inhibitor, partial curve, poor fit] | 
7 | Oc1ccc2c3c1O[C@H]1c4oc5ccccc5c4C[C@@]4(O)C(C2)N(CC2CC2)CCC314 (stereo not given in full) | inconclusive [inhibitor, partial curve] | 
8 | CCNC1(c2cccs2)CCCCC1=O (stereo not given) | inactive | 
9 | CCN(CC)C(=O)[C@@H]1C=C2c3cccc4[nH]cc(c34)C[C@H]2N(C)C1 | inactive | 
10 | COc1cc(C[C@@H](C)N)c(OC)cc1Br | inactive | 
11 | CC(C)Oc1cccc(NC(=O)c2ccccc2C(F)(F)F)c1 | inconclusive [inhibitor, partial curve, poor fit] | 
12 | CN(C)[C@H](Cc1ccccc1)c1ccccc1 | inactive | 
13 | CCCCCc1cc(O)c2c(c1)OC(C)(C)c1ccc(C)cc1-2 | inconclusive [inhibitor, partial curve, poor fit] | 
14 | CN1C(=O)CN=C(c2ccccc2)c2cc([N+](=O)[O-])ccc21 | inconclusive [inhibitor, full curve, poor fit] | 
15 | CCCN1C[C@H](C)N([C@H](c2ccc(C(=O)N(CC)CC)cc2)c2cccc(OC)c2)C[C@H]1C | inconclusive [inhibitor, partial curve, poor fit] | 
16 | C[C@@]1(CO)[C@H](O)CC[C@@]2(C)[C@H]1CC[C@H]1C[C@@H]3C[C@@]12CC[C@]3(O)CO | active: 63.1 µM | 
17 | CC(C)C[C@H](CN)CC(=O)O | inconclusive [inhibitor, full curve, poor fit] | 
18 | CCC1C(=O)OCC1Cc1cncn1C (stereo not given) | inconclusive [inhibitor, full curve, poor fit] | 
19 | O=C1NC(=O)C(=O)C(=O)N1 | inconclusive [inhibitor, single point] | 
20 | Cc1nnc2ccc(-c3cccc(C(F)(F)F)c3)nn12 | inconclusive [inhibitor, single point] | 

Row | SMILES | Potency | activity, negative = inhibition
21 | O=C1CCC[C@H]2[C@H]3CCCN4CCCC(=CN12)[C@@H]34 | inactive | 
22 | COc1ccccc1CN1CC[C@@]2(CCCN(C(=O)Oc3ccccc3)C2)C1 | inconclusive [inhibitor, full curve, poor fit] | 
23 | COC(=O)CN1CN(c2ccccc2)C2(CCN(Cc3ccc4ccccc4c3)CC2)C1=O | inconclusive [inhibitor, partial curve, poor fit] | 
24 | CCCCCCCCCCCCCC(=O)O[C@@H]1[C@@H](C)[C@@]2(O)[C@@H](C=C(CO)C[C@@]3(O)C(=O)C(C)=C[C@@H]23)C2C(C)(C)[C@@]21OC(C)=O (stereo not given in full) | inconclusive [inhibitor, partial curve, poor fit] | 
25 | Oc1ccc(Cl)cc1 | inconclusive [inhibitor, partial curve, poor fit] | 
26 | COc1ccc(C(=O)c2c(C)n(CCN3CCOCC3)c3cc(I)ccc23)cc1 | inconclusive [inhibitor, full curve] | 
27 | O=S(=O)(c1ccc(Cl)cc1)c1ccc(Cl)cc1 | inconclusive [inhibitor, single point] | 
28 | Cc1c2ccncc2c(C)c2c1[nH]c1ccccc12 | inconclusive [inhibitor, single point] | 
29 | CCON=O |  | inconclusive: -30.7% [inhibitor]
30 | CCC1(c2cnc[nH]2)Cc2ccccc2C1 | inactive | 
31 | CC(=O)Oc1c2c(c(CC=C(C)C)c3c1C(=O)C1=CC4CC5C(C)(C)OC(C/C=C(\C)C(=O)O)(C4=O)[C@]15O3)OC(C)(CCC=C(C)C)C=C2 (stereo not given in full) | active: 70.8 µM | 
32 | COc1ccc(C(=O)O[C@H]2CC[C@@]3(C)C4CCC5[C@]6(O)C[C@H](O)[C@@]7(O)C(CN8C[C@@H](C)CC[C@H]8[C@@]7(C)O)[C@]6(O)C[C@@]53O[C@@]42O)cc1OC (stereo not given in full) | inactive | 
33 | COC(=O)COc1cc(Cl)c(Cl)cc1Cl | inconclusive [inhibitor, full curve] | 
34 | CCOC(=O)[C@]12Cc3cc(OC)ccc3[C@H]1N(Cc1ccccc1)C(=O)c1ccccc12 | inconclusive [inhibitor, partial curve, poor fit] | 
35 | NCCc1c[nH]c2ccccc12 | inconclusive [inhibitor, single point] | 
36 | CCO/N=C(\CC)C1=C(O)CC(c2c(C)cc(C)cc2C)CC1=O (stereo not given) | inconclusive [inhibitor, partial curve, poor fit] | 
37 | CC(C)(O)[C@H]1O[C@@H]2CC[C@]3(C)[C@@]4(C)c5[nH]c6ccccc6c5C[C@@H]4CC[C@]3(O)C2=CC1=O | inconclusive [inhibitor, full curve] | 
38 | CC[C@H](Oc1ccc(Cl)cc1)C(=O)OC1C[C@H]2CC[C@@H](C1)N2C (stereo not given in full) | inconclusive [inhibitor, partial curve] | 
39 | CC(=O)OCC1=C(C(=O)O)N2C(=O)[C@@H](NC(=O)CCC[C@@H](N)C(=O)O)[C@H]2SC1 | inconclusive [inhibitor, single point] | 
40 | C[C@@H]1[C@H](O)[C@@H](C)C=CC=CCCC=CC=CC=CC=C[C@H](O[C@H]2O[C@@H](C)[C@H](O)[C@@H](N)[C@@H]2O)CC2O[C@](O)(C[C@@H](O)[C@H](O)CC[C@@H](O)C[C@@H](O)C[C@@H](O)CC(=O)O[C@H]1C)C[C@H](O)[C@H]2C(=O)O | inactive | 
